In patent publication US5763625A, “Synthesis and use of β-lapachone analogs” (priority 1995, dated 1998):

Assays:
[1] = tested on: human radioresistant melanoma (U1-Mel) cells; experiment: Radiosensitization of X-irradiated confluence-arrested U1-Mel cells (survival); conditions: at 10 times the dose of the 3-allyl-β-lapachone
[2] = tested on: unirradiated U1-Mel cells; experiment: Toxicity to unirradiated confluence-arrested U1-Mel cells

Q: Which “drug enhanced radiation value (DER value)” value [1] does the source give for `CC[C@@]1(O)C(=O)OCc2c1cc1n(c2=O)Cc2cc3c(CN(C)C)c(O)ccc3nc2-1` [Topotecan] here?
A: 2.7

Q: Which “optimal concentration range with relatively little toxicity to unirradiated cells” value [2] does the source give for `C=CCC1CC2=C(OC1(C)C)c1ccccc1C(=O)C2=O` (centres unmarked) here?
A: 4 to 40 µM
